Article PMC12136788
This is one part of the list.

B1: ENSG00000198589:be:win_701|CDS|ENSG00000198589|bound_else_gene|NA|bound_elsewhere_windowed (ssRNA)
RNA: GGGAGUUCUACAGUCCGACGAUCAUACAUGGCUUAGAAUGGAUCCUGUAAAUAACAUCAAUGUAGAUAAGGAUAAACCAUAUUUGUAUUGUUUCAGAACCAGCAAAGGUCUUGGCUAUUCUGCUCAUUUUGUUGGAGGCUGUUCAACAGAGGAUUGAGCAUCA
B2: chr11:130404922:130405557:-|three_prime_utr|ENSG00000134917|control|control|control (ssRNA)
RNA: GGGAGUUCUACAGUCCGACGAUCAUGGGGCGGCAGACCCUAUCAUCAACUGUCCAGUGGACUGGACCUUGCUCGGGUUCAAGUAGAGGGCAUAGGUUAAAAGGUAAAAGUGCACUUAUUGACUCAGACAGGACACUCAGCGUCCAACAGAGGAUUGAGCAUCA
B3: chr6:145805060:145805161:-|CDS|ENSG00000118496|unk|FALSE|bound_elsewhere (ssRNA)
RNA: GGGAGUUCUACAGUCCGACGAUCAGAAGAUCCUAUGGGCCUCCAAGGAAUAGAUCUGAUCACAGCAGCAUUGCUUUUUUGUCUAGGAGAUUCUCCAGGAGGGAGGGGUAUAUCUGAUAGCCGCAUGGCUGAUAUUUAUCACAUCAACAGAGGAUUGAGCAUCA
B4: ENSG00000136451:be:win_1501|CDS_3pUTR|ENSG00000136451|bound_else_gene|NA|bound_elsewhere_windowed (ssRNA)
RNA: GGGAGUUCUACAGUCCGACGAUCGCAAUGAGACCUGUAGAGAGCAUGCCUUUCUUGCCCCAAGCUUUGCCUACAUCACCGCCUUGGUAAACAGUAUUAUAAAAUCAAAAUAUGGGUAAAAGUAAAUAUUUACCAGCAACUUAACAACAGAGGAUUGAGCAUCA
B5: ENSG00000198589:be:win_801|CDS|ENSG00000198589|bound_else_gene|NA|bound_elsewhere_windowed (ssRNA)
RNA: GGGAGUUCUACAGUCCGACGAUCUCAUUUUGUUGGAGGCUGUUUGAUUGUAACAUCAAUAAAGUCAAAAGGAAAAGGCUUUCAACACUGUGUGAAAUUUGAUUUCAAGCCACAAAAGUGGUAUAUGGUUACCAUAGUACACAUCAACAGAGGAUUGAGCAUCA
B6: chr2:112756978:112757080:-|CDS|ENSG00000169607|unk|FALSE|unique (ssRNA)
RNA: GGGAGUUCUACAGUCCGACGAUCCUUCUGGGCAAAAGGCUGACUUCAGAAUGUGUUUCUUCUAACCCAUACUCUAAGCCUUCUAGCAAGAGUUUUCAACAGUGUGAAGCUGGAUCGUCCACAACAGGAGAACUGUCAAGAAAACAACAGAGGAUUGAGCAUCA
B7: ENSG00000136451:be:win_3701|3pUTR|ENSG00000136451|bound_else_gene|NA|bound_elsewhere_windowed (ssRNA)
RNA: GGGAGUUCUACAGUCCGACGAUCUCUCUGGUGGGCUGGCAGUCAUAAUUCACAAUUCAGACAGCCCAGGCUUCCUCCACAGUGGUCCAAGGAGCAGUCCUCAGUGGGGGCAGGUGUGGGCCCUACCCCUAAGCUAGAAUGUGGCAACAGAGGAUUGAGCAUCA
B8: ENSG00000168615:stop:overlap|stop_codon|ENSG00000168615|stop_codon|NA|stop_codon (ssRNA)
RNA: GGGAGUUCUACAGUCCGACGAUCCUGGCCAGAAUACCCAAAAUAAUUGGCAGAUGUCAAAUUUGGCUUUCUGUGUUUAUUACUAGAGCAUAAACAUUUCUAGUUUUGUUUGAGUGUUUUACAGUCCUUUUUGGCAGUUAGGUACAACAGAGGAUUGAGCAUCA
B9: chr8:48920054:48920155:-|CDS|ENSG00000019549|unk|FALSE|unique (ssRNA)
RNA: GGGAGUUCUACAGUCCGACGAUCACCUAUUCAACUUUUUCUGGGCUGGCCAAACAUAAGCAGCUGCACUGCGAUGCCCAGUCUAGAAAAUCUUUCAGCUGUAAAUACUGUGACAAGGAAUAUGUGAGCCUGGGCGCCCUGAAGCAACAGAGGAUUGAGCAUCA
B10: chr2:54972555:54972835:-|3pUTR|ENSG00000115310|msi1_unk|FALSE|overlapping (ssRNA)
RNA: GGGAGUUCUACAGUCCGACGAUCUGUGCACUGUGUAUGGUCCGUGUAGAUUGAUGCAGAUUUUCUGAAAUGAAAUGUUUGUUUAGACGAGAUCAUACCGGUAAAGCAGGAAUGACAAAGCUUGCUUUUCUGGUAUGUUCUAGGCAACAGAGGAUUGAGCAUCA
B11: chr22:20586770:20586871:+|3pUTR|ENSG00000099917|unk|total|mutant (ssRNA)
RNA: GGGAGUUCUACAGUCCGACGAUCACACGCCUCCUGUCAGACACUUCCCGGUGUUGGCUUCCUCCGAGAGCCUGGGGUCCGGUCCGCUUUCCUGCUUUUAUCUUCUGCCUUGGGGACCUGCCAAACGAAAUCCCACACCUGUACCAACAGAGGAUUGAGCAUCA
B12: ENSG00000070961:be:win_1051|CDS|ENSG00000070961|bound_else_gene|NA|bound_elsewhere_windowed (ssRNA)
RNA: GGGAGUUCUACAGUCCGACGAUCAAAGCAAAUUUGCCAAAAAAGGAAAAAUCUGUUUUACAAGGGAAACUUACAAAACUGGCUGUUCAGAUUGGCAAAGCAGGUCUGUUGAUGUCUGCCAUCACAGUUAUCAUUCUAGUAUUACAACAGAGGAUUGAGCAUCA
B13: chr2:159432892:159433005:-|CDS|ENSG00000123636|unk|total|mutant (ssRNA)
RNA: GGGAGUUCUACAGUCCGACGAUCACACCUGUAAUGCCCUCUGCCUCUCCCAUCCUGCACCGUCAAGGGAAGGAAAAAGCAGUCCGCAAUAAUGUAAACCCAGUAAAAACACAGCAUCACUCCCAUCCUGCAAAAUCUUCCGUGCAACAGAGGAUUGAGCAUCA
B14: chr5:177457090:177457109:-|3pUTR|ENSG00000113758|msi1_unk|total|mutant (ssRNA)
RNA: GGGAGUUCUACAGUCCGACGAUCGGCCGUUGAGACGCUGUUGCAAAUUCCACCCCUCCUUCCCUGGUCCAGAUUGCCGCUCUCCGUCCUCCCUGCUCAGCUGGCCGGGUUGGAGGCCUCACCCUGCUUGGGGCCUGGCGUGGGCAACAGAGGAUUGAGCAUCA

target: MSI1 full-length (mouse, UniProt Q61474 1-362); test: nsRBNS (natural sequence RNA bind-n-seq); RBNS binding buffer (assumed for nsRBNS): 25 mM Tris pH 7.5, 150 mM KCl, 3 mM MgCl2, 0.01% Triton X-100, 500 ug/ml BSA, 20 U/ml SUPERase-In, 4 C; UNK is unkempt and MSI1 is Musashi-1; names of the RNAs are library labels; protein concentration not given here; high values mean tight binding
UniProt Q61474, sequence (Q61474 whole entry): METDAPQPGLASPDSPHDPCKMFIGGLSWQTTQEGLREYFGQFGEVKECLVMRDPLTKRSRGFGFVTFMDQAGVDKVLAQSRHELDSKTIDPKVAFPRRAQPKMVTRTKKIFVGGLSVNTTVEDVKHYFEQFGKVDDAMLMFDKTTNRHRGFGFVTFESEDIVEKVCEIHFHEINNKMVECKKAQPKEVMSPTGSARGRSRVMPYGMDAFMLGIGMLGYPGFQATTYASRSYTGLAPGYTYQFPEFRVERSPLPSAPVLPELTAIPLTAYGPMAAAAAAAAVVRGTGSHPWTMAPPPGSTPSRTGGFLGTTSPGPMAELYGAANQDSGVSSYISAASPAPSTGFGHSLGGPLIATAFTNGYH

Binder	binding signal [enrichment R]
B1	1.38
B2	0.878
B3	0.421
B4	0.827
B5	0.264
B6	0.472
B7	0.479
B8	0.392
B9	0.478
B10	0.252
B11	0.509
B12	0.43
B13	1.09
B14	0.701
